Test results: article PMC2720784 (Biochemistry, 2009)

Tests used:
[1] = biological target: T1, wild-type hNCRD (human SP-D trimeric neck+CRD) (Homo sapiens, UniProt P35247); test: biochemical
T1 sequence (P35247 223-375 limits assumed): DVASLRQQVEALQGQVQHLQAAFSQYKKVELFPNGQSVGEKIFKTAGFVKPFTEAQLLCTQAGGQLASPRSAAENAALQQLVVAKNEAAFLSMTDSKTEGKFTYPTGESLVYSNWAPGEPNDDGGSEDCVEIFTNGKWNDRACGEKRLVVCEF

[2] = biological target: T1, wild-type hNCRD (human SP-D trimeric neck+CRD); conditions: p<0.001
hNCRD fusion proteins = biological target: T2, hNCRD fusion proteins (Homo sapiens, UniProt P35247)
T2 sequence (P35247 223-375 limits assumed): T1 sequence (P35247 223-375 limits assumed)

Compound | IC50 [1] | higher affinity than for mannose [2] | rank of arrayed ligand for wild-type hNCRD (hNCRD fusion proteins)
OC[C@H]1OC(O)[C@@H](O)[C@@H](O)[C@@H]1O (stereo partly drawn) [D-mannose] | 3800 µM | – | –
CO[C@H]1O[C@H](CO[C@H]2O[C@H](CO)[C@@H](O)[C@H](O)[C@@H]2O)[C@@H](O)[C@H](O[C@H]2O[C@H](CO)[C@@H](O)[C@H](O)[C@@H]2O)[C@@H]1O [TM core, methyl 3,6-Di-O-(α-D-mannopyranosyl)-α-D-mannopyranoside] | 1600 ± 150 µM | approximately 2 fold | –
OC[C@H]1O[C@H](O[C@@H]2C(O)O[C@H](CO)[C@@H](O)[C@@H]2O)[C@@H](O)[C@@H](O)[C@@H]1O (stereo partly drawn) [alpha1–2 DM, alpha1–2 linked dimannose] | – | approximately 2 fold | –
Manα1–2Manα1–2Man- [ligand 4] | – | – | best ligand
